Out of some 52,000 compounds screened, about 1,700 (3.3%) were called active. Rule as the data show it: active = survival mostly below about 52% (no sharp cut-off); inactive = mostly above about 56%. The list shows a part of the results.

For this test, the system named is Wild type. In words: growth inhibition of S. aureus wild type versus tarO mutant, primary screen, teichoic acid synthesis inhibitors, RN4220, OD600 (AID 463173). The following applies: S. aureus RN4220 wild type/DeltatarO growth, OD600, 18 h, active compounds read low, screened at 18.75 µg/mL (by protocol).
`CCOc1ccc(CCNC(=O)CSc2nnnn2-c2ccccc2Cl)cc1OCC`: the survival was inactive: 97%.
Turning to `COc1ccccc1OCCCn1c(C2CC(=O)N(c3ccc(F)cc3)C2)nc2ccccc21` (stereo not drawn), the survival is inactive: 101%.
For `COc1ccc(CCNC(=O)c2c(Nc3ccccc3C)sc(C(=O)c3ccccc3)c2N)cc1OC` the value was inactive: 53%; for `Cc1cccc2nc(Cn3c(=O)n(-c4ccccc4)c(=O)c4c5c(sc43)CCC5)cc(=O)n12`, inactive: 82%; for `CC(C)n1c(SCC(=O)c2ccc(F)cc2)nc2c(sc3ccccc32)c1=O`, inactive: 74%.
With `Cc1ccc(C2C(C(=O)/C=C/c3ccccc3)=C(O)C(=O)N2CCO)cc1` (stereo not drawn), the survival was inactive: 99%.
For `CCN1c2ccccc2-c2nc(SCC(=O)Nc3cc(OC)cc(OC)c3)ncc2S1(=O)=O` the value was inactive: 32%; for `COc1ccc(-c2nn(C)c3sc(C(=O)Nc4cc(OC)c(OC)c(OC)c4)cc23)cc1OC`, inactive: 79%.
For the molecule `CCCN(C(=O)c1c(C)oc2ncn(CC(C)C)c(=O)c12)c1ccccc1C`, the survival is inactive: 59%.
For `CCOc1ccccc1NC(=O)CSc1nnc(CC)c(CC)n1` the value was inactive: 102%; for `CCCCC(CC)CNC(=O)c1ccc(Cn2c(=O)[nH]c3cc(OC)c(OC)cc3c2=O)cc1` (stereo not drawn), inactive: 101%.
For `CCCOc1ccc(C(=O)Nc2cc(-c3nc4ccccc4[nH]3)ccc2C)cc1` the value was inactive: 73%.
For `COc1cccc(CN2CCCN(Cc3ccc(F)cc3)S2(=O)=O)c1` the value was inactive: 69%; for `Cc1ccc(O)c(NC(=O)C2=CC(c3cccs3)=NS(=O)(=O)N2C)c1`, inactive: 71%.
In the case of `Cc1ccccc1OCC(=O)Nc1nnc(SCc2cc(=O)n3cccc(C)c3n2)s1`, the survival is inactive: 82%.
Regarding `COc1ccc(C)cc1NC(=O)C1CCN(S(=O)(=O)Cc2ccccc2)CC1`, the survival is inactive: 86%.
For `COc1cccc(CNC(=O)c2cc3cc(C)ccc3n2C)c1` the value was inactive: 92%.
For `CC1Cc2cc(S(=O)(=O)CCC(=O)Nc3ccc(F)cc3Cl)ccc2N1C(=O)C1CC1` (stereo not drawn) the value was inactive: 47%; for `CCOc1ccccc1NC(=O)Cn1c(=O)n(-c2ccc(Cl)cc2)c(=O)c2oc3ccccc3c21`, inactive: 85%.
In the case of `Cn1cc(S(=O)(=O)N2CCc3ccccc32)cc1C(=O)Nc1ccc(C(F)(F)F)cc1`, the survival is inactive: 63%.
In the case of `Cc1c(NC(=O)C(C)(C)C)cccc1-c1nc2ccccc2s1`, the survival was inactive: 82%.
For `Cc1ccc(-n2nc(C(=O)N3CCN(c4cc(C)ccc4C)CC3)c3c4ccccc4n(C)c3c2=O)cc1` the value was inactive: 79%; for `Cn1c(=O)n(C)c2cc(N3CCCCC3)c(NC(=O)Nc3ccc(Br)cc3)cc21`, inactive: 81%.
For `CCc1ccc(NC(=O)CSc2nc3c([nH]c4ccccc43)c(=O)n2C)cc1` the value was inactive: 51%; for `CCN(CC)c1ccc(NC(=O)Cn2cc3c(n2)CCCC3)c(C)c1`, inactive: 124%; for `Cc1ccc(-n2c(=O)c3ccc(C(=O)NCc4ccccc4Cl)cc3n(Cc3cccc(F)c3)c2=O)cc1`, inactive: 77%.
For the molecule `Cc1ccc(CNC(=O)C2CCCN(c3nn4cc(-c5ccc(C)cc5)nc4s3)C2)cc1` (stereo not drawn), the survival is inactive: 92%.
For `CC1C(=N)N(c2nc(N(C)C)nc(N(C)C)n2)CC1=O` (stereo not drawn) the value was inactive: 91%.
For `CCOC(=O)c1cc2c(=O)n3ccccc3nc2n(CC2CCCO2)c1=NC(=O)c1ccccc1OCC` (stereo not drawn) the value was inactive: 61%.
With `COc1ccc(N2CCN(C(CNC(=O)c3c(F)cccc3F)c3ccc4c(c3)OCO4)CC2)cc1` (stereo not drawn), the survival is inactive: 92%.
For `COC(=O)Cc1c(C)c2ccc3c(c2oc1=O)CN(Cc1ccc(Cl)cc1)CO3` the value was inactive: 85%.
For the molecule `CCOc1ccc(-n2cc(-c3ccccc3)c3c(NCc4ccccc4)ncnc32)cc1`, the survival is inactive: 74%.
For `OC1(C#Cc2ccccc2)CCCCC1` the value was inactive: 111%.
For `COCCn1c(SCc2ccccc2F)nc2c([nH]c3ccccc32)c1=O` the value was inactive: 73%.
For `Cc1cccc(CNC(=O)c2ccc(Cn3c(SCc4cccc(F)c4)nc4cccnc43)cc2)c1` the value was inactive: 77%.
For `COc1cc(CN(C(=O)c2ccc(C)cc2)C2CCS(=O)(=O)C2)cc(OC)c1OC` (stereo not drawn), the survival was inactive: 88%.
For `COc1ccc(CNC(=O)C2CCN(S(=O)(=O)N3CCC(C)CC3)CC2)c(OC)c1` the value was inactive: 82%; for `C/C(=N/NC(=O)Cc1cccs1)c1ccc(C)cc1`, inactive: 110%; for `Cc1ccc(NS(=O)(=O)c2cn(C)c(C)n2)c(Br)c1`, inactive: 88%.
For `COc1cccc(NC(=O)C2CC(=O)N(c3ccc(Br)cc3)C2)c1` (stereo not drawn) the value was inactive: 63%; for `Ic1ccc(Nc2nc3nonc3nc2N/N=C\c2ccco2)cc1`, inactive: 36%.
For `CCCSc1ncc(Cl)c(C(=O)Nc2ccc(S(=O)(=O)N3CCCCC3C)cc2)n1` (stereo not drawn), the survival is inactive: 82%.
Consider `N#C/C(=C\c1cccc(F)c1)c1nc(-c2cc3ccccc3oc2=O)cs1`, for which the survival was inactive: 77%.
For `Cc1ccc2c(c1)c1c(c(=O)n(Cc3ccccc3)c(=O)n1Cc1cccc(F)c1)n2C` the value was inactive: 68%.
For `Cc1ccccc1OCc1nnc(SCc2cc(=O)c3cc(F)ccc3[nH]2)n1C` the value was inactive: 69%; for `Cc1ccc(S(=O)(=O)c2cn(CC(=O)Nc3ccc4c(c3)OCO4)c3ccc(C)cc3c2=O)cc1`, inactive: 75%.
For `COc1ccc(-c2nc3ccccc3o2)cc1NC(=O)c1cc([N+](=O)[O-])ccc1N1CCOCC1` the value was inactive: 59%; for `COc1ccc(-c2ccc(CCC(=O)O)n2-c2ccccc2C(F)(F)F)cc1`, inactive: 129%.
Turning to `CCC1CN(CC(=O)NCc2cccc(Br)c2)c2ccccc2S1` (stereo not drawn), the survival is inactive: 99%.
For `NCC1NCCc2ccccc21` (stereo not drawn) the value was inactive: 105%; for `COC(=O)Cc1c(C)nc2nc(NCc3ccc(Br)cc3)[nH]n2c1=O`, inactive: 90%.
For `CCOc1ccc(-c2cc(C)n3nc(C(=O)Nc4ccc(C)c(C)c4)cc3n2)cc1` the value was inactive: 67%; for `CC(Oc1ccccc1)C(=O)Nc1ccccc1C(=O)OCc1cc(=O)n2nc(C3CC3)sc2n1` (stereo not drawn), inactive: 131%.
For `CCc1nnc(SCC(=O)Nc2ccc(OC)c(OC)c2)c2cc3occc3n12` the value was inactive: 81%.
Take `CCc1ccc(N2CC(C)Cn3c2nc2c3c(=O)n(CC(=O)O)c(=O)n2C)cc1` (stereo not drawn): the survival is inactive: 68%.
For `CCOC(=O)CN(Cc1ccccc1)C(C(=O)NC1CCCCC1)c1ccccc1` (stereo not drawn) the value was active: -2%; for `CCCCSc1nc(O)c(CCC(C)C)c(=O)[nH]1`, inactive: 103%.
For `Cc1ccccc1NC(=O)CCC(=O)N1CC(C)Sc2ccccc21` (stereo not drawn) the value was inactive: 92%.
Take `COc1cccc(CNC(=O)CSC2=Nc3ccccc3C3=NC(C(C)C)C(=O)N23)c1` (stereo not drawn): the survival was inactive: 66%.
For `O=C(Nc1noc2ccccc12)c1ccc(F)cc1` the value was inactive: 78%.
For `CCOC(=O)c1ccc(NC(=O)C2(S(=O)(=O)c3ccc(Cl)cc3)CC2)cc1` the value was inactive: 91%.
For `COc1ccc(CNC(=O)c2cc(=O)c3cc(C)ccc3o2)cc1`, the survival is inactive: 83%.
For `C=Cc1ccc(COc2ccc3oc(-c4ccccc4)c(C(=O)OCC)c3c2)cc1` the value was inactive: 68%; for `Cc1cccc(C)c1NS(=O)(=O)c1ccc(NS(=O)(=O)c2ccc3c(c2)OCCO3)cc1`, inactive: 140%.
For `COc1ccc(C(=O)N(c2ccc(OC)cc2)S(=O)(=O)c2ccc3c(c2)n(C)c(=O)n3C)cc1` the value was inactive: 74%; for `Cc1ccc(C)c(N2CCN(CCCNC(=O)c3ccc4nc(N5CCCCC5)sc4c3)CC2)c1`, inactive: 76%.
For `Cc1ccc(-c2nnc(Nc3ccccc3)c3ccccc23)cc1S(=O)(=O)NCc1nc2ccccc2[nH]1` the value was inactive: 89%.
For `Cc1cccc(N2CCN(C(=O)CCS(=O)(=O)c3ccc4c(c3)oc(=O)n4C)CC2)c1C`, the survival was inactive: 85%.
For `CCOC(=O)COc1ccc([N+](=O)[O-])cc1-c1ccnc2cc(-c3ccc(C)cc3)nn12` the value was inactive: 67%.
For `O=C(c1cc2ccc3cccnc3c2[nH]1)N1CCN(c2ccc(Cl)cc2)CC1` the value was inactive: 91%; for `Cc1c(Cl)cccc1NC(=O)Cn1nnc2sc3c(c2c1=O)CCCC3`, inactive: 90%.
For `COc1ccccc1C(=O)Nc1cccc(C(=O)OCc2cc(=O)n3nc(C)sc3n2)c1`, the survival is inactive: 73%.
For `O=C(CN1C(=O)C2(SCC(=O)N2c2ccccc2)c2ccccc21)NCc1ccccc1` (stereo not drawn) the value was inactive: 84%; for `NC(=O)CSc1ncc2c(n1)-c1ccccc1N(Cc1ccc(Cl)cc1)S2(=O)=O`, inactive: 75%; for `O=C(Nc1cccc(Cl)c1Cl)c1cc(S(=O)(=O)NCCc2ccccc2)ccc1F`, inactive: 76%.
As to `CC(C)c1noc(-c2ccccc2OCC(=O)Nc2ccccc2[N+](=O)[O-])n1`, the survival was inactive: 73%.
For `CN1CCN(C2=NC(=O)/C(=C\C=C/c3ccccc3)S2)CC1` the value was inactive: 118%; for `Cc1cc(Nc2ccc(Cl)cc2C)nc(-n2nc(C)cc2C)n1`, inactive: 76%.
For `CC(C)(C)c1ccccc1NC(=O)CSc1nc(-c2cccs2)cc(C(F)(F)F)n1` the value was active: 10%; for `Cc1nn(CC(=O)Nc2cc(F)ccc2F)c(=O)c2cccn12`, inactive: 85%.
For `Cc1cc(C)n(-c2n[nH]c(=S)c3ccccc23)n1` the value was inactive: 103%; for `O=C(NCc1ccc2c(c1)CCN2C(=O)c1ccc(F)cc1)c1ccco1`, inactive: 111%; for `CCOc1ccc(C(=O)Nc2ccc(-n3nncc3-c3ccccc3)cc2)cc1OCC`, inactive: 135%.
`CCC(=O)Nc1ccc2nc3c(=O)n(C)c(=O)n(C)c3nc2c1`: the survival is inactive: 73%.
For `Cc1c(CNC2CCCCC2)c(C(=O)O)c(C)n1Cc1ccc(F)cc1` the value was inactive: 88%; for `CC1(C)CC(=O)C2=C(C1)OC1=C(C(=O)CC(C)(C)C1)C2c1ccc2c(c1)OCO2`, inactive: 104%; for `CCN(C(=O)c1cc2c(=O)n3cccc(C)c3nc2s1)c1ccc(C)c(C)c1`, inactive: 74%.
Take `CCC(NC(=O)Nc1cc(OC)ccc1OC)c1c(-n2cccc2)sc2c1CCN(CC)C2` (stereo not drawn): the survival was inactive: 75%.

Source of the values: PubChem BioAssay AID463173 (ICCB-Longwood Screening Facility, Harvard Medical School, 2010).
